The text below walks through data of article PMC3900716.

Amino acid sequences for entries named in this document (tags omitted). A change or cut given only in a name is not applied to a line headed by its entry. Chains listed by the source or under a name are the forms on record and can include a tag or linker.
RET9MEN2A (C634R) (P07949, form named): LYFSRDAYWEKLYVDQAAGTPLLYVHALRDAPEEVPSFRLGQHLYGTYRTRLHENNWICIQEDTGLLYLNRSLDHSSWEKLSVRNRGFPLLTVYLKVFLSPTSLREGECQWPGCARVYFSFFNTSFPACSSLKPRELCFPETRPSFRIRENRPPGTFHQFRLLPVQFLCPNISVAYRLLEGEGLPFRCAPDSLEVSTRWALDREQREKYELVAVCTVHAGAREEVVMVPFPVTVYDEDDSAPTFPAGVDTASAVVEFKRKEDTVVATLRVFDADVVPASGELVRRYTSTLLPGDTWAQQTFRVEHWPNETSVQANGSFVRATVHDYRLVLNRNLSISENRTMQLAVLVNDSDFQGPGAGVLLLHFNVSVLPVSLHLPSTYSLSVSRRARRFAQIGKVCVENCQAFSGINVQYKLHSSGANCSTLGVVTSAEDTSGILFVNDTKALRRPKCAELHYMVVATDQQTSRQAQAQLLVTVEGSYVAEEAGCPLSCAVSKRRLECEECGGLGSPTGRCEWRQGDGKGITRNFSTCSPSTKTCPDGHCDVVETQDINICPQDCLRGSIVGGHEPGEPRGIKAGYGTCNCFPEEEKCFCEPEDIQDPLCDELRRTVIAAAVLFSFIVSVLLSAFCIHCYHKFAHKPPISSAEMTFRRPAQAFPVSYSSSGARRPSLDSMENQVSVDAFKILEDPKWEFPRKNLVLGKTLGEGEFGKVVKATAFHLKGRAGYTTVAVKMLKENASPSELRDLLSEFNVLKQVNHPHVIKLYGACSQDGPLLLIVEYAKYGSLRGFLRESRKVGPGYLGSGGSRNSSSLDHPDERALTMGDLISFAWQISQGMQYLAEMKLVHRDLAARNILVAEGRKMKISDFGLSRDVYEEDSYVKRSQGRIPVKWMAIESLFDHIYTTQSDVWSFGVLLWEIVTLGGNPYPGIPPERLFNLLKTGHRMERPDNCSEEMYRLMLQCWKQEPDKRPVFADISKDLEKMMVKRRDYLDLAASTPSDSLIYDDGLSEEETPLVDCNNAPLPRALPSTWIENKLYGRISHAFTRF
UniProt Q9NR12: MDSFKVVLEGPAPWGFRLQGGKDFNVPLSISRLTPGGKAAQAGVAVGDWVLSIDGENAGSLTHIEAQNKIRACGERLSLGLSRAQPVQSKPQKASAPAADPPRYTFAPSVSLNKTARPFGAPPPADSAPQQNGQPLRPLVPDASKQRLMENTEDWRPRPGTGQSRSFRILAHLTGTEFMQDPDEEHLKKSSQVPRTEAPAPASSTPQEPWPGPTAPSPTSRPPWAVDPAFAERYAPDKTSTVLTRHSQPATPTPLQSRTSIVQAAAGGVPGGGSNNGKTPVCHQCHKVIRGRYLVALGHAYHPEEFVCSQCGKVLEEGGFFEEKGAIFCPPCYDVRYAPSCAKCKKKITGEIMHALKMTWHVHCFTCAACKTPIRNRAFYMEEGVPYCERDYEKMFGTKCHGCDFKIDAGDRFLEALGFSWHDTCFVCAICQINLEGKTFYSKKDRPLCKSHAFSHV

The target in experiment [1] is RET9MEN2A (C634R) (human) (UniProt P07949). The experiment can be described thus: co-IP; rabbit anti-RET with Protein A/G Plus-agarose, 300 µg whole cell lysate of co-transfected HEK293T cells, immunoblot; in Figure 4A cells with 20 nM MG-132 for 5 h before collection. On the technique in general: A western blot detects proteins with antibodies after separation by electrophoresis.

Experiment [2] has as its target FLAG-tagged Enigma (human) (UniProt Q9NR12). The experiment in a line: co-IP; anti-FLAG-M2 agarose, 300 µg whole cell lysate of co-transfected HEK293T cells, immunoblot.

Results are given in words; binding and its absence hold for the method and conditions named. Binding seen in cells or lysates may run through a third protein. Some entries that bind do so weakly or less than the wild type. Where a sequence is shown, tags or fusion partners need not be part of it.

B1: GST-tagged human Cbl-c (enzyme, UniProt Q9ULV8 1-474)
chain: MALAVAPWGRQWEEARALGRAVRMLQRLEEQCVDPRLSVSPPSLRDLLPRTAQLLREVAHSRRAAGGGGPGGPGGSGDFLLIYLANLEAKSRQVAALLPPRGRRSANDELFRAGSRLRRQLAKLAIIFSHMHAELHALFPGGKYCGHMYQLTKAPAHTFWRESCGARCVLPWAEFESLLGTCHPVEPGCTALALRTTIDLTCSGHVSIFEFDVFTRLFQPWPTLLKNWQLLAVNHPGYMAFLTYDEVQERLQACRDKPGSYIFRPSCTRLGQWAIGYVSSDGSILQTIPANKPLSQVLLEGQKDGFYLYPDGKTHNPDLTELGQAEPQQRIHVSEEQLQLYWAMDSTFELCKICAESNKDVKIEPCGHLLCSCCLAAWQHSDSQTCPFCRCEIKGWEAVSIYQFHGQATAEDSGNSSDQEGRELELGQVPLSAPPLPPRPDLPPRKPRNAQPKVRLLKGNSPPAALGPQDPAPA
In the case of B1, the binding entry in experiment [1] is reported as “binds”.

B2: HA-tagged Cbl-c (enzyme, UniProt Q9ULV8 1-474)
chain: MALAVAPWGRQWEEARALGRAVRMLQRLEEQCVDPRLSVSPPSLRDLLPRTAQLLREVAHSRRAAGGGGPGGPGGSGDFLLIYLANLEAKSRQVAALLPPRGRRSANDELFRAGSRLRRQLAKLAIIFSHMHAELHALFPGGKYCGHMYQLTKAPAHTFWRESCGARCVLPWAEFESLLGTCHPVEPGCTALALRTTIDLTCSGHVSIFEFDVFTRLFQPWPTLLKNWQLLAVNHPGYMAFLTYDEVQERLQACRDKPGSYIFRPSCTRLGQWAIGYVSSDGSILQTIPANKPLSQVLLEGQKDGFYLYPDGKTHNPDLTELGQAEPQQRIHVSEEQLQLYWAMDSTFELCKICAESNKDVKIEPCGHLLCSCCLAAWQHSDSQTCPFCRCEIKGWEAVSIYQFHGQATAEDSGNSSDQEGRELELGQVPLSAPPLPPRPDLPPRKPRNAQPKVRLLKGNSPPAALGPQDPAPA
Consider B2, for which, in experiment [2], the binding entry was “binds”.
